Experimental data: article PMC6919601, “Identification of Plasmodium dipeptidyl aminopeptidase allosteric inhibitors by high throughput screening” (PLoS ONE, 2019)
The campaign covered roughly 110,000 compounds. About 230 (0.21%) showed an effect of 50% or more. Some of the results follow.

What follows are compounds tested against DPAP1 (Plasmodium falciparum, UniProt Q8IIJ9) (assay: primary screen, percent inhibition; read by cleavage of a fluorogenic dipeptide substrate; higher = more effect of the substance).
Sequence of DPAP1 (Q8IIJ9 whole entry, looked up): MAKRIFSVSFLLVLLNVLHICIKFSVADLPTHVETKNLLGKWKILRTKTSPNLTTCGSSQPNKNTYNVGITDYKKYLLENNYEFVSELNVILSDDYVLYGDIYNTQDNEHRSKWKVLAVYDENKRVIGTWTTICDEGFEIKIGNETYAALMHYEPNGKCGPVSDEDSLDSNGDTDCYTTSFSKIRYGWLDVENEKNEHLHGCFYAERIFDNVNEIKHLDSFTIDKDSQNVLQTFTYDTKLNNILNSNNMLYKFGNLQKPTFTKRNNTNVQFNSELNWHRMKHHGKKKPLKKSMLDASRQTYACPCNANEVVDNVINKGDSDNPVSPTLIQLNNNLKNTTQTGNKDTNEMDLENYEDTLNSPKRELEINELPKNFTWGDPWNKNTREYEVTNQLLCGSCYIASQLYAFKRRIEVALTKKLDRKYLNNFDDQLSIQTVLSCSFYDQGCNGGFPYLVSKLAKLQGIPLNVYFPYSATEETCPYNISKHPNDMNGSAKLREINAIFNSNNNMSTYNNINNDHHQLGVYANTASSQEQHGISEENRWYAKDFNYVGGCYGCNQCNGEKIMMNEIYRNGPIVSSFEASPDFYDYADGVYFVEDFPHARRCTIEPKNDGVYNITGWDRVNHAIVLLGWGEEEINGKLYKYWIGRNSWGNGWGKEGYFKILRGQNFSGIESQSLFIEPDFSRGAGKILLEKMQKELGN
Parameters: species or system P. falciparum D10 trophozoite lysates; single well
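Further: 30 min substrate incubation versus DMSO and 10 µM JCP410 controls.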

Row | SMILES | % Inhibition @ 10 uM
1 | COC(=O)C1=C(C)NC(=O)CC1c1cccc(Cl)c1 (stereo not shown) | -1.36%
2 | N#CCNC(=O)[C@H](Cc1c(F)cc(F)cc1F)NC(=O)OCc1ccccc1 | -0.207%
3 | N#Cc1ccc(/C=c2\sc3nc4ccccc4n3c2=O)cc1 | 2.26%
4 | O=C(CSc1nnnn1-c1ccc(O)cc1)NCc1cccc(C(=O)O)c1 | -3.96%
5 | O=C(CCn1c(=O)[nH]c2ccsc2c1=O)N1CCC(Cc2ccccc2)CC1 | 7.93%
6 | Cc1cccc(/N=C2\C(=O)N(C)c3cccc4c(O)c5ccccc5c2c34)c1 | -2.46%
7 | CCC(=O)Nc1ncc2c(n1)CC(c1ccc(Cl)cc1)CC2=O (stereo not shown) | -2.14%
8 | O=C(Cc1ccccc1)C1CCOC1=O (stereo not shown) | 6.24%
9 | CN1CCN(c2ccc(NC(=O)c3ccco3)cc2)CC1 | 2.55%
10 | O=C(O)C1CC=CCC1C(=O)NCc1ccncc1 (stereo not shown) | 2.32%
11 | CCc1ccc(OCC(O)CN2CCN(Cc3ccccc3)CC2)cc1 (stereo not shown) | -2.37%
12 | c1ccc(OCCN2CCN(c3ccccc3)CC2)cc1 | 4.81%
13 | O=C(COc1ccccc1)n1nc(-c2ccco2)nc1NCc1cccs1 | 0.248%
14 | CCOc1cc2c(cc1OC)C(c1ccc(N(C)C)cc1)NCC2 (stereo not shown) | -1.22%
15 | CN1C(=O)NC(=O)/C(=C\c2cc3c(cc2Cl)OCO3)C1=O | -2.97%
16 | Cc1c(C(=O)OC(C)C)[nH]c2c1C(=O)CC(C)(C)C2 | 0.559%
17 | Cc1cccc(OCc2nc(C#N)c(N3CC(C)OC(C)C3)o2)c1 (stereo not shown) | 2.32%
18 | CO/C(=N\c1c(C)cc(C)cc1C)c1ccco1 | -0.736%
19 | CCCNC(=O)c1cc2nc(-c3ccc(Cl)cc3)cc(C(F)(F)F)n2n1 | -1.93%
20 | COc1coc(CSC(=S)N2CCCCC2)cc1=O | -0.636%
21 | CC1(C)CC(=O)c2c(nc(SCC(=O)NCc3ccc4c(c3)OCO4)c(C#N)c2-c2ccccc2)C1 | 3.06%
22 | O=C(OCCCc1nc2ccccc2[nH]1)C12CC3CC(CC(C3)C1)C2 | -7.78%
23 | Cc1nc(O)nc(O)c1S(=O)(=O)N1CCN(C2CCCCC2)CC1 | -2.58%
24 | O=C(CC1CCCCC1)NCc1nc(-c2ccc(Cl)cc2)no1 | -2.99%
25 | Cc1nn(Cc2ccccc2)c(=S)[nH]c1=O | -3.63%
26 | O=C(NCCc1ccc(Cl)cc1)NCc1noc2ccccc12 | -2.85%

Row | SMILES | % Inhibition @ 10 uM
27 | CC/N=C1\S/C(=C\c2ccc(F)cc2)C(=O)N1CC | -24.6%
28 | CCn1c(=O)c2sccc2n2c(CCCC(=O)NCCc3c[nH]c4ccccc34)nnc12 | -4.76%
29 | NC(=O)c1ccc(Cl)c(N2C(=O)C3C4C=CC(C4)C3C2=O)c1 (stereo not shown) | 3.8%
30 | O=C(Cn1ncc2c3ccccc3nc-2c1O)Nc1ccc(Cl)cn1 | -5.6%
31 | Cc1cnc(NC(=O)CSc2ncn(-c3ccccc3)n2)s1 | 0.245%
32 | CSc1ccc2nc(NC(C)CCCC(C)(C)O)cc(C)c2c1 (stereo not shown) | -3.32%
33 | Sc1nnc(CN2CCCCCC2)n1-c1ccccc1 | 1.43%
34 | CCOC(=O)CNC(=O)NC(C)c1ccc(C)cc1 (stereo not shown) | 0.968%
35 | Cc1nn(-c2ccc(F)cc2)c(-n2cccc2)c1C(=O)Nc1nccs1 | -6.49%
36 | COc1ccc(-c2cc(C(F)(F)F)n3nc(C(=O)NCc4ccccc4)cc3n2)cc1 | 15.6%
37 | CC(c1ccccc1)C1C(C#N)=C(N)Oc2[nH]nc(-c3ccccc3)c21 (stereo not shown) | 5%
38 | Cc1cc(C)c(C)c(S(=O)(=O)NCC(=O)N2CCN(C(=O)c3ccco3)CC2)c1C | 2.4%
39 | COc1ccccc1C1C(C#N)=C(C)N=C2CC(c3ccccc3)CC(O)=C21 (stereo not shown) | 0.792%
40 | OC12CCCCC1C(c1c(F)cccc1Cl)NCC2 (stereo not shown) | -0.13%
41 | CC12CN3CC(C)(CN(C1)C3(C)C)C2O (stereo not shown) | -4.03%
42 | C/C=C(\C)CN1CCCC(C(=O)OCC)C1 (stereo not shown) | 3.48%
43 | CC(Oc1ccc(Oc2ncc(Cl)cc2Cl)cc1)C(=O)O (stereo not shown) | -6.86%
44 | CCO/C(O)=C1\C(C)=NC(=S)NC1c1cccc(OC)c1 (stereo not shown) | -1.99%
45 | O=C(NC1CCCCC1)NC1CCN(c2nc3ccccc3s2)CC1 | -2.88%
46 | Cc1ccc(OC2OCC(O)C(O)C2O)cc1 (stereo not shown) | -5.65%
47 | CC(C)c1ccc(NC(=O)c2ccccc2F)cc1 | -5.57%
48 | COCCCNC(=O)C1=C(C)C(=O)OC12CCN(C(C)=O)CC2 | -2.69%
49 | COc1ccccc1-c1cc(=O)n(CC(=O)N2CCC(N3CCCCC3)CC2)c2c1CCCC2 | 5.09%
50 | Cc1ccc(O)c(-c2cc(-c3ccccc3Cl)[nH]n2)c1 | -0.414%
51 | CC(CCN1CCCC(O)C1)c1ccccc1 (stereo not shown) | -2.24%
52 | CC(C)NC(=O)c1c(O)c2ccccc2n(C)c1=O | 2.92%

Row | SMILES | % Inhibition @ 10 uM
53 | CN(C)c1ccc(CN(C(=O)c2ccc(Br)cc2)C2CCS(=O)(=O)C2)cc1 (stereo not shown) | -5.49%
54 | CCN(CC)CC#CC(C)(CC)OC(C)=O (stereo not shown) | 5.77%
55 | CCOc1ccc(C2C3=C(O)CC(C)(C)CC3=NC(C)=C2C(=O)Nc2ccccc2OC)cc1OC (stereo not shown) | -5.96%
56 | Nc1ccc2nc(SCC(=O)N3CCOCC3)sc2c1 | 4.01%
57 | CNC(=O)C12N=CNN=C1N(C)C(=O)N2C (stereo not shown) | -1.69%
58 | COc1ccccc1/C=C/C=c1\sc2nc(-c3ccccc3OC)nn2c1=O | 0.561%
59 | Cc1ccc(-c2ccc(/C=C3\SC(=O)N(C)C3=O)o2)c(Br)c1 | 2.17%
60 | Cc1sc(NC(=O)C2CC=CCC2C(=O)O)c(C#N)c1-c1ccccc1 (stereo not shown) | -2.07%
61 | O=C(O)c1ccccc1S(=O)(=O)Cc1ccccc1 | 0.983%
62 | CN(C)CCN(C(=O)COc1ccccc1)c1nc2cc3c(cc2s1)OCO3 | -0.35%
63 | COc1cc(CN2CCC(Cc3ccccc3)CC2)cc(OC)c1 | -4.58%
64 | CC(=O)c1ccc(NS(=O)(=O)c2cc(S(=O)(=O)c3ccccc3)ccc2C)cc1 | -7.27%
65 | COc1cccc2c(O)c3cccc(OC)c3nc12 | -10.9%
66 | COc1cc2nc(-c3ccc(N(C)C)cc3)n(C)c2cc1OC | -3.03%
67 | Cc1cc2c(cc1/C=C1/S/C(=N/c3ccccc3)N(C)C1=O)OCO2 | -1.27%
68 | Cc1ccc(NC(=O)Nc2ccccc2)cc1F | -7.06%
69 | Cc1cc2ncc(-c3ccc(Cl)cc3)c(N)n2n1 | -2.67%
70 | Cc1cccc(N(CC(=O)N2CCN(c3cc(Cl)ccc3C)CC2)S(C)(=O)=O)c1 | -1.27%
71 | O=C(C1=C(O)C(=O)N(CCCn2ccnc2)C1c1ccc(O)cc1)c1cc2ccccc2o1 (stereo not shown) | -0.28%
72 | Cc1ccc(CCNC(=O)CN(C)S(=O)(=O)c2c[nH]cn2)cc1 | 1.63%
73 | COc1ccc(C(O)c2nc3ccccc3n2C(C)C)cc1OC (stereo not shown) | -1.79%
74 | CCCC1=C(C(=O)OCC)C(c2ccc(CC)cc2)NC(=O)N1 (stereo not shown) | -1.66%
75 | CCN(CC)CCNC(=O)c1cc(C)nc2c1c(C)nn2-c1ccccc1 | 6.84%
76 | Cc1noc(/C=C/c2cccs2)c1S(=O)(=O)N1CCC(C(=O)Nc2nccs2)CC1 | -1.28%
77 | CC(=O)C1=C(O)C(=O)N(C)C1c1ccc(N(C)C)cc1 (stereo not shown) | 2.65%
78 | Oc1nc2c(s1)C(c1ccccc1)C1C3CCC(C3)C1S2 (stereo not shown) | 3.37%

Row | SMILES | % Inhibition @ 10 uM
79 | C=CCn1c(CC)nc2c(sc3nc4c(cc32)COC(C)(C)C4)c1=O | 10.9%
80 | Cc1ccc2oc(=O)c3cc(C(=O)NC(C)CCc4ccco4)sc3c2c1 (stereo not shown) | -3.37%
81 | NS(=O)(=O)c1ccc(CCNC(=O)c2cnn(-c3ccccc3)c2-n2cccc2)cc1 | -1.58%
82 | Nc1c(C(=O)NCCC2=CCCCC2)sc2ccc(S(=O)(=O)N3CCCCC3)cc12 | 5.23%
83 | N#CC1=C2SCN(C3CCCC3)CN2C(=O)CC1c1cccs1 (stereo not shown) | 48.2%
84 | COC(=O)c1c(-c2ccccc2)csc1NS(=O)(=O)c1cc(-c2cc(C)no2)ccc1C | -1.19%
85 | COc1ccc(S(=O)(=O)Nc2cncc(C(=O)NCc3ccc4c(c3)OCO4)c2)cc1 | -4.05%
86 | CCOC(=O)NC1CS(=O)(=O)CC1NCC(=O)O (stereo not shown) | -3.5%
87 | c1ccc(/N=c2\scc(-c3ccccc3)n2CCCN2CCOCC2)cc1 | -4.26%
88 | CCOCCCNC(=O)C(c1ccc(C)cc1)N(Cc1cccs1)C(=O)c1cnccn1 (stereo not shown) | 1.26%
89 | CN(C)c1nc(N)nc(CSc2nc3c(c(=O)n(C)c(=O)n3C)n2C)n1 | -9.47%
90 | O=C(NCc1cccnc1)C(=O)NCc1ccc2c(c1)OCO2 | -4.04%
91 | O=C(Nc1ccc(Cl)cc1)c1cccs1 | 2.86%
92 | COCCN(Cc1ccco1)C(=O)Nc1cn(C)c(=O)c2ccccc12 | 9.42%
93 | O=C(CN1Cc2ccccc2C1=O)NCCCc1ccccc1 | -4.1%
94 | CCOc1ccccc1C(=O)N(Cc1ccc(Cl)cc1)Cc1ccco1 | 4.47%
95 | CCc1nnc(NC(=O)CSc2ccc3nnc(-c4ccc(Cl)cc4)n3n2)s1 | 1.73%
96 | Cc1ccc(CNC(=O)Cc2nc3nc(C)cc(C)n3n2)cc1 | -3.94%
97 | Cc1ccccc1C(=O)c1cccn1CC(=O)NCCN1CCCCC1C (stereo not shown) | 1.15%
98 | O=C(Nn1cnnc1)c1ccco1 | 2.45%
99 | CCc1ccc(CNCc2c(C(=O)O)n(Cc3cccc(F)c3)c3ccccc23)cc1 | -0.804%
100 | CC(NC(=O)c1cc(-c2ccc(O)cc2)on1)c1ccccc1 (stereo not shown) | 4.5%
101 | Cc1cccn2c(=O)c3cc(C(=O)NCc4ccc5c(c4)OCO5)n(C)c3nc12 | 6.81%
102 | CC(C)CN(CC(C)C)c1nnc(NC(=O)NCc2ccco2)s1 | -6.58%
103 | CC12CC(c3ccccc3O1)C(S(=O)(=O)c1ccccc1)C(=O)N2 (stereo not shown) | 2.57%
